In PubChem BioAssay AID1460 (National Center for Advancing Translational Sciences (NCATS), 2008):
Out of some 270,000 compounds screened, about 5,800 (2.1%) were called active. The inconclusive results got no clear call from the source; some entries with a clear call stand among them for comparison. Calls come from the whole dose curve; as a rule, active = well fitted inhibition curve with a large enough effect; inconclusive = small, poorly fitted or top-dose-only effect; inactive = flat fitted curve, though single readings scatter. Potencies beside an inconclusive call are fits to weak or partial responses and may not hold up.
% is set by controls: 0 for no effect and ±100 for the full control effect; potency is the fitted concentration of half-maximal effect; tags give direction and shape of the fitted curve.
Note: nearly all actives have a fitted effect of over 55% in size.

The molecules below were run against Microtubule-associated protein tau (Homo sapiens) (UniProt P10636) (assay: qHTS for Inhibitors of Tau Fibril Formation, Thioflavin T Binding). Conditions: recombinant tau K18 P301L (four-repeat tau fragment), heparin-induced fibrillization, ThT fluorescence; series mostly up to 57.4 µM; activity, negative = inhibition: at the top concentration.
Chain of UniProt P10636 (P10636 whole entry, looked up, the tested form may be a part): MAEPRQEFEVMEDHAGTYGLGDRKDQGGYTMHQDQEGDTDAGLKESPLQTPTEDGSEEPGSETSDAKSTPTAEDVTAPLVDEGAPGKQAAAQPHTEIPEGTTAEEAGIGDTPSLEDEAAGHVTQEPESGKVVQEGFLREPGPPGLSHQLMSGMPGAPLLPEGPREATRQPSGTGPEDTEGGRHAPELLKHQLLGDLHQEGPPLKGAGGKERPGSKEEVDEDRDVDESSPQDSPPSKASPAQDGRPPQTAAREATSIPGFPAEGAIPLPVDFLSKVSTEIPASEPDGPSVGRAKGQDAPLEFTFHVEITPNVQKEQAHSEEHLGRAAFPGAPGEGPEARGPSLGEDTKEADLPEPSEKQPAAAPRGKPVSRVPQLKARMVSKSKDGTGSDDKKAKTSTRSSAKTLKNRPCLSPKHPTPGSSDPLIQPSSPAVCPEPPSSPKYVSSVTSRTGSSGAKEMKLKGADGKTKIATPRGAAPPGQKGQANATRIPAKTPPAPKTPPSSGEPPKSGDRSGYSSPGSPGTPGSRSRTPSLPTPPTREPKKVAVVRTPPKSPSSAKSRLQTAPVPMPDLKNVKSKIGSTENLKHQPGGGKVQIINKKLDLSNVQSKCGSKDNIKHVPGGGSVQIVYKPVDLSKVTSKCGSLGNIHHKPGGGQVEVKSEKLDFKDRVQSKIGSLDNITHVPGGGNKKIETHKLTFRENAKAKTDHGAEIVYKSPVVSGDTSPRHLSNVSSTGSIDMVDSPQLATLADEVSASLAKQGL
How it was run: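 Recombinant human tau K18 fragment […] carrying P301L, 15 uM unlabeled plus 0.24 uM Alexa 594-labeled, was fibrillized with 20 uM heparin in 100 mM sodium acetate pH 7 for 6 hr at 37 C; 30 uM ThT fluorescence read after 1 hr.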
For CCCCC(=O)Nc1c(C(=O)N2CCN(c3ccccc3)CC2)oc2ccccc12, the “activity, negative = inhibition” value was inactive: -29.4%. CCOc1ccc(CNC(=O)c2cccn2-c2nnc(N3CCCCC3)s2)cc1OC was tested, and the “activity, negative = inhibition” value was inactive: -15.1%. With CC(C)(C)c1cc(NCc2ccccn2)n2ncc(-c3ccc(Cl)cc3)c2n1 the Potency was inconclusive: 28.2 µM [inhibitor, single point]. In the case of O=C1ON=C(c2ccccc2)/C1=C\c1ccco1, the Potency is reported as inconclusive: 14.1 µM [inhibitor, partial curve]. In the case of CSc1ccccc1NC(=O)c1cc(-c2cccs2)on1, the Potency is reported as inconclusive: 17.8 µM [inhibitor, partial curve]. With O=C(COc1ccc2oc(-c3ccccc3)cc(=O)c2c1)NCc1ccco1 the Potency was inconclusive: 3.55 µM [inhibitor, partial curve]. For Nc1ccc(Br)cc1-c1nc2ccccc2[nH]c1=O, the Potency was inconclusive: 8.91 µM [inhibitor, partial curve]. In the case of COC(=O)c1ccc(-c2sc3nc(N4CCOCC4)c4c(c3c2N)CCCC4)o1, the Potency is reported as inconclusive: 17.8 µM [inhibitor, partial curve]. COc1ccccc1C(=O)N/N=C(\C)CC(=O)Nc1ccc(Cl)cn1 was tested, and the Potency was inconclusive: 22.4 µM [inhibitor, partial curve, poor fit]. In the case of Cc1cccc(Sc2ccc([N+](=O)[O-])cc2[N+](=O)[O-])n1, the Potency is reported as inconclusive: 14.1 µM [inhibitor, partial curve]. In the case of COc1ccc(OCC(O)Cn2cnc(-c3ccc(Br)cc3)c2)cc1 (stereo not given), the Potency is reported as inconclusive: 0.891 µM [inhibitor, full curve, poor fit]. With O=C1CN(C(=O)CSc2nc3ccccc3n2CCc2ccccc2)c2ccccc2N1 the Potency was inconclusive: 35.5 µM [inhibitor, single point]. COc1nc(OC)nc(N2CCC(C(=O)Nc3cccc4c3CCCC4)CC2)n1 was tested, and the Potency was inconclusive: 11.2 µM [inhibitor, partial curve]. In the case of CCOC(=O)C1CCCN(C(=O)c2cc3nc(-c4cccc(OC)c4)cc(C(F)(F)F)n3n2)C1 (stereo not given), the Potency is reported as inconclusive: 39.8 µM [inhibitor, single point]. COc1ccc(C(=O)COc2ccc(F)cc2)c(O)c1 was tested, and the Potency was inconclusive: 39.8 µM [inhibitor, partial curve]. For NC(=O)COc1ccc(NC(=O)OCc2ccccc2)cc1, the Potency was inconclusive: 28.2 µM [inhibitor, single point]. For CCOC(=O)CCCN1C(=O)CCn2nc(-c3cn(C)c4ccccc34)cc21, the Potency was inconclusive: 28.2 µM [inhibitor, single point]. Cc1ccc(-c2nc(CS(=O)CC(=O)N3CCN(c4ccc(F)cc4)CC3)c(C)o2)cc1 (stereo not given) was tested, and the Potency was inconclusive: 22.4 µM [inhibitor, single point]. In the case of COc1ccc(Nc2nc(-c3ccccc3)cs2)cc1, the Potency is reported as inconclusive: 2.82 µM [inhibitor, full curve]. CCCCN(C)C(=O)c1ccc2c(c1)N(Cc1ccc(F)cc1)C(=O)c1ccccc1S2(=O)=O was tested, and the Potency was inconclusive: 39.8 µM [inhibitor, single point]. For O=C(Nc1ccccc1F)C1CCN(S(=O)(=O)c2ccc3c(c2)CCCN3C(=O)C2CCC2)CC1, the Potency was inconclusive: 44.7 µM [inhibitor, single point]. COc1ccc(N=c2cc(-c3ccc(OC)cc3)oc3ccccc23)cc1 was tested, and the Potency was inconclusive: 12.6 µM [inhibitor, partial curve]. For O=C1OCCC/C1=C\c1ccc2c(c1)OCO2, the Potency was inconclusive: 0.0562 µM [inhibitor, full curve, poor fit]. For Cc1ccccc1NC(=O)CSC(N)=O, the Potency was active: 25.1 µM. Cc1ccc(C(=O)CSc2nnc(-c3c[nH]c4ccccc34)o2)cc1 was tested, and the Potency was inconclusive: 12.6 µM [inhibitor, partial curve]. COc1ccc2c(c1)O[C@H](c1ccc3c(c1)OCO3)[C@@H](OC(=O)Nc1ccc(OC(F)F)cc1)C2=O was tested, and the “activity, negative = inhibition” value was inactive: -0.725%. For N#Cc1ccccc1NC(=O)C(=O)NCC(c1ccc2c(c1)OCO2)N1CCOCC1 (stereo not given), the “activity, negative = inhibition” value was inactive: 4.63%. With CCn1c2ccccc2c2cc(NC(=O)CSc3nnc(C4CC4)n3Cc3ccco3)ccc21 the Potency was inconclusive: 12.6 µM [inhibitor, partial curve]. For COc1cc(C2C(C#N)=C(N)N(c3sc4c(c3C#N)CCCC4)C3=C2C(=O)CC(C)(C)C3)cc(OC)c1OC (stereo not given), the Potency was inconclusive: 12.6 µM [inhibitor, partial curve, poor fit]. In the case of Cc1ccc(NC(=O)Cn2c(O)c(N=NS(=O)(=O)c3ccc(C)cc3)c3ccccc32)cc1, the Potency is reported as inconclusive: 20 µM [inhibitor, single point]. For CCc1ccc(C2C(C#N)=C(N)C(C#N)(C#N)C3=CCC(C(C)(C)C)CC32)cc1 (stereo not given), the Potency was inconclusive: 25.1 µM [inhibitor, single point]. For COc1ccc(NC(=O)CCCc2c[nH]c3ccccc23)cc1OC, the Potency was inconclusive: 20 µM [inhibitor, partial curve]. COc1ccc2c(c1)nc(SCC(=O)c1ccc(Br)s1)n2C was tested, and the Potency was inconclusive: 20 µM [inhibitor, partial curve, poor fit]. For COC(=O)C1C2C=CC3(CN(CCc4ccccc4)C(=O)C13)O2 (stereo not given), the “activity, negative = inhibition” value was inactive: 1.42%. O=C(CCl)Nc1cc2[nH]c(=O)[nH]c2cc1Br was tested, and the Potency was inconclusive: 35.5 µM [inhibitor, single point]. O=[N+]([O-])/C(C(Cl)=C(Cl)Cl)=C(\Sc1ccccc1)N1CCCCC1 was tested, and the Potency was active: 25.1 µM. With Cc1ccc(Nc2nc3c(c(=O)[nH]c(=O)n3C)n2Cc2ccc(F)cc2)cc1 the “activity, negative = inhibition” value was inactive: 0.165%. Cc1ccc(S(=O)(=O)N2CCC(=O)N(C(COCc3ccc(C(F)(F)F)cc3)Cc3ccccc3)CC2)cc1 (stereo not given) was tested, and the Potency was inconclusive: 4.47 µM [inhibitor, partial curve, poor fit]. With O=C(NCCN1C(=O)S/C(=C\c2ccc(Cl)c(Cl)c2)C1=O)C1COc2ccccc2O1 (stereo not given) the Potency was inconclusive: 7.94 µM [inhibitor, partial curve]. With CCCCC1=CC2=C(OC(C)=O)C(=O)C(C)(OC(=O)C3CCCC3)C(=O)C2=CO1 (stereo not given) the Potency was active: 28.2 µM.
